In all, about 33,000 sequences were measured (“E-score (-0.5 to 0.5)”: median about -0.036, highest 2% from about 0.37 on). This is one part of the list.
target: T1, Yer064c (UniProt P40041); assay: PBM E-score (8-mer binding enrichment) (E-score (-0.5 to 0.5)); higher = stronger / more preferred TF binding; most listed sequences are background and not binding sites; settings: protein concentration: 200 nM; construct: GST-full length
T1 sequence: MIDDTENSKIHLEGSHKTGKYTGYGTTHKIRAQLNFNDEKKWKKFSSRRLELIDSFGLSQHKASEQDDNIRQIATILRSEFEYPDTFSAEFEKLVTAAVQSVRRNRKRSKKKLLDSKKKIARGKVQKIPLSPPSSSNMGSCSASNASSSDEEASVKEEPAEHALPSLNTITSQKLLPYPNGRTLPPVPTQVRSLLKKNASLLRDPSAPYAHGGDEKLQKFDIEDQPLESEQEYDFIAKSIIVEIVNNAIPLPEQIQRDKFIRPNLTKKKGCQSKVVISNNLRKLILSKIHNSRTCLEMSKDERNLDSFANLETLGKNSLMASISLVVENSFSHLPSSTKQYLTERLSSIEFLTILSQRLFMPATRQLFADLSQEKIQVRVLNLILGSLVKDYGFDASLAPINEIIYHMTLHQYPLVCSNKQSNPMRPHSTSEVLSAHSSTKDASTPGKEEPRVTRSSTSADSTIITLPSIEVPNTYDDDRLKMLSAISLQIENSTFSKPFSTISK
Outline: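 Universal all-10-mer Agilent arrays, fresh or stripped once, were converted to double-stranded form by primer extension. GST-tagged yeast transcription factors from PURExpress in vitro transcription/translation, full-length or DNA-binding domain only, were applied at about 100-200 nM and detected with fluorescent anti-GST. After masliner normalisation, the Universal PBM Analysis Suite scored each ungapped eight-base word together with its reverse complement by E-score.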

Row | Sequence | PBM E-score
1 | CCACAACA | -0.178
2 | CGACCAGC | -0.303
3 | AGTCTTAA | 0.387
4 | CCATAACA | 0.0487
5 | ACCGCTCG | -0.201
6 | CTAGCTAA | 0.0229
7 | GTTGAGTA | 0.292
8 | ATTGGGTC | -0.0594
9 | ATTTCTAA | -0.172
10 | AGCGCGAC | 0.15
11 | CCCAGAAC | -0.0764
12 | AATCCTAC | -0.0673
13 | ATTCGGCA | -0.0455
14 | AGTCCAGC | 0.0731
15 | CATCAAGC | 0.0135
16 | GGCCGCCC | -0.257
17 | GGTTAACC | 0.329
18 | AAGCGTCA | -0.0121
19 | AACCTTTG | -0.0673
20 | AACATTCC | -0.199
21 | CGATTCCA | -0.102
22 | AGGTTACC | -0.0652
23 | CGAGGTTC | -0.0505
24 | ATGAAACC | 0.0106
25 | AGTCCCAA | 0.236

Row | Sequence | PBM E-score
26 | AATTGTGA | 0.185
27 | CGGAGTTC | -0.146
28 | TGTGAGAA | 0.0508
29 | ACGGGATC | -0.171
30 | GAGAGTCA | 0.481
31 | TCCACCCA | -0.0817
32 | GCACTGAA | -0.155
33 | ATCAGCTC | 0.0634
34 | ATGTAGTA | 0.0442
35 | TAAGTCTA | 0.053
36 | CTAACCCA | 0.213
37 | CGGCCCCC | -0.321
38 | TGTTGAAA | 0.0239
39 | CTTTAGGA | 0.146
40 | AAGCTGTG | -0.12
41 | ATGAGCTA | 0.104
42 | GGGATTTA | -0.225
43 | ACCATCAT | 0.123
44 | GTTAAATA | 0.137
45 | GAACGGCA | -0.132
46 | CAGCACGA | -0.0349
47 | CACGTAAC | -0.104
48 | GCCGCTAC | -0.261
49 | AGTATGTG | 0.0421
50 | CACTATCA | -0.0721

Row | Sequence | PBM E-score
51 | TCTTTGAA | 0.0685
52 | GAACAAAA | 0.0375
53 | CAGTTCAA | -0.0435
54 | AACCAAAA | 0.011
55 | CCCACATA | 0.0317
56 | ATTTCTAG | -0.0357
57 | ACCCAGGA | -0.127
58 | CCAGCACA | -0.0355
59 | CGCTCCGC | -0.26
60 | GTAGTGAA | -0.0203
61 | TAGGCTAA | -0.141
62 | CACGCGAA | -0.107
63 | AATCTGCA | -0.0558
64 | CACAAGTG | -0.0715
65 | GTGTATGA | 0.216
66 | ACGGTTAA | 0.0809
67 | ATGATCGG | -0.0977
68 | ATCCTTTA | 0.124
69 | ATTTATGA | 0.236
70 | AGAGGTAT | 0.146
71 | CGTTTGAC | 0.0916
72 | AAATTATC | 0.0717
73 | GTGTAGGA | -0.0235
74 | AGATTGAC | 0.227
75 | GACGTAAC | -0.00076

Row | Sequence | PBM E-score
76 | GAAGGATA | 0.0607
77 | ACAGGCGC | -0.132
78 | AGCAGAAG | -0.0731
79 | TCGTATCA | 0.123
80 | GAGCGCAA | -0.139
81 | GCGGGTTA | 0.0254
82 | CCGCGAGA | -0.014
83 | CGAGTCAC | 0.477
84 | ATCTAGAT | 0.0739
85 | AGGTTTGG | -0.133
86 | ACAAGTCC | -0.047
87 | CAGTGCCA | -0.307
88 | CTCTTAGC | 0.0139
89 | ATCAGTCA | 0.434
90 | ATGAACTC | 0.248
91 | GAATAACA | 0.0178
92 | GACCACTA | 0.0368
93 | AAATTGCG | -0.043
94 | AATAGACA | 0.0418
95 | AGGAGAAA | -0.108
96 | CTCTATGA | 0.236
97 | GTGTACAA | 0.0596
98 | GGCTTTAC | 0.0995
99 | ACCGGAGT | 0.0908
100 | AAGCCATA | 0.102

Row | Sequence | PBM E-score
101 | ACGCTCCC | -0.0617
102 | TCTTTTCA | 0.017
103 | GAACGGTC | -0.211
104 | AATATATC | -0.0361
105 | AGGAAAAT | -0.107
106 | ATTACCAC | -0.0144
107 | AACTGACA | -0.287
108 | GAAGCTTA | -0.146
109 | CTATGTAC | -0.0546
110 | GAGACGGC | -0.0746
111 | CGGCACCA | -0.195
112 | AACTAATC | 0.15
113 | GATTAAGA | 0.35
114 | GGATCAGA | -0.0744
115 | AATACCAA | -0.0127
116 | CATGCCAC | -0.122
117 | AACAAGAG | -0.0406
118 | CTTTCACA | 0.0349
119 | AAAATTAA | 0.0275
120 | GCGGCCTA | -0.192
121 | CTACTCAG | 0.132
122 | CTAAGGGA | -0.0913
123 | TACGTGAA | -0.00788
124 | AATGCCTG | -0.22
125 | AGCGGTCC | -0.11

Row | Sequence | PBM E-score
126 | TATCGCCA | -0.051
127 | CATCACAA | -0.0486
128 | CCCGACGG | -0.172
129 | ATAAGTTC | 0.0221
130 | ACAAGTCT | 0.0793
131 | TATCGACA | -0.0727
132 | GAACTACA | -0.0403
133 | GTGATCCA | 0.014
134 | AGACATAT | 0.137
135 | CACTCGTC | 0.0587
136 | AAAGCCGG | -0.189
137 | CGACATCA | -0.217
138 | AGCGGCGC | -0.287
139 | AGATAGTA | 0.177
140 | GGGAGCCA | -0.00881
141 | GCCCTTAA | -0.185
142 | GAAGGGTC | -0.13
143 | CATAATAG | 0.00036
144 | CGGGCAAC | -0.115
145 | GTACCACA | 0.0546
146 | CCATATCA | -0.0803
147 | CGACCCGC | -0.12
148 | AGCTTCAT | -0.0042
149 | GTTTTTTA | 0.0743
150 | ACGCCTGG | -0.0916

Row | Sequence | PBM E-score
151 | GCTTCTCA | -0.0992
152 | CCGGTAGG | -0.102
153 | AACTACTC | 0.199
154 | CCTCGGGA | -0.063
155 | AGTCTTTC | 0.372
156 | CACTCGGC | 0.00226
157 | ATGCACCA | -0.193
158 | AACTTTAC | -0.0347
159 | AAGCGAAT | -0.0164
160 | CGCGTCCA | -0.166
161 | GGATACCC | -0.0132
162 | CGCCTTTC | -0.222
163 | ATAAATGA | 0.308
164 | TAATTGAA | 0.204
165 | GATCCCGC | -0.222
166 | CGAGATCG | 0.0241
167 | AATCCCAT | -0.18
168 | AGACGAAA | -0.0295
169 | CCAGCGCC | -0.274
170 | CCGAGTCC | 0.195
171 | AAGATGCA | -0.0244
172 | AAGGTCGA | -0.0769

Reference: the supplement of paper PMC3334620
